Measurements from PubChem BioAssay AID1745853 (National Center for Advancing Translational Sciences (NCATS), 2022).
The list shows a part of the results. These are further read-outs of the screen, such as a control signal, another cell line or another target. No call is given for them.

How the values were obtained:
Test in all cases: Primary Screen for Target Class Profiling of Small Molecule Inhibitors of Methyltransferases
[1] = target: Glycine N-methyltransferase (Homo sapiens) (UniProt Q14749); conditions: purified enzyme, MTase-Glo SAH luminescence; measured here: GNMT inhibition; at 40 µM; stronger effect = lower value
Summary of the method: (§1)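 Each enzyme was reacted with SAM and its substrate, with compounds tested once at 40 uM; SAH formed was read by MTase-Glo luminescence.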

[2] = target: Guanidinoacetate N-methyltransferase (Homo sapiens) (UniProt Q14353); conditions: purified enzyme, MTase-Glo SAH luminescence; measured here: GAMT inhibition; at 40 µM; stronger effect = lower value
Summary of the method: as §1

[3] = target: Histamine N-methyltransferase (Homo sapiens) (UniProt P50135); conditions: purified enzyme, MTase-Glo SAH luminescence; measured here: HNMT inhibition; at 40 µM; stronger effect = lower value
Summary of the method: as §1

[4] = target: Nicotinamide N-methyltransferase (Homo sapiens) (UniProt P40261); conditions: purified enzyme, MTase-Glo SAH luminescence; measured here: NNMT inhibition; at 40 µM; stronger effect = lower value
Summary of the method: as §1

[5] = target: Phenylethanolamine N-methyltransferase (Homo sapiens) (UniProt P11086); conditions: purified enzyme, MTase-Glo SAH luminescence; measured here: PNMT inhibition; at 40 µM; stronger effect = lower value
Summary of the method: as §1
On the % scale 0 is the no-effect control and ±100 the full control effect.

Structure (SMILES)	activity change, negative = inhibition [1] [%]	activity change, negative = inhibition [2] [%]	activity change, negative = inhibition [3] [%]	activity change, negative = inhibition [4] [%]	activity change, negative = inhibition [5] [%]
CN1CCN(C(CN)C2CCCCC2)CC1 (stereo unspecified)	-1.14	2.18	-7.99	-5.92	10.3
COC(=O)c1c(C)cc(OC(=O)c2c(C)cc(OC)cc2OC)cc1O[C@@H]1O[C@H](CO)[C@@H](O)[C@H](O)[C@H]1O	-4.93	-4.89	6.8	-18.1	-12.9
C=CCNC(=O)CCCc1nnc2n3nc(-c4ccccc4)nc3c3ccccc3n12	-8.48	4.38	-6.25	7.94	-7.14
O=C(C1CC1)N1CC[C@@H](Cc2n[nH]c(=O)n2-c2ccc(-c3ccc4occc4c3)cc2)C1	-3.28	-1.66	6.88	-14.2	1.57
CCCC1c2ccc(C)n2CCN1C(=O)Nc1cc(C)cc(C)c1 (stereo unspecified)	-4.45	3.44	-5.59	4.16	-2.07
O=[S+]([O-])(c1cccc(C(F)(F)F)c1)N1CCCC2(CC(c3ccccn3)=NO2)C1 (stereo unspecified)	-6.43	-9.16	-3.3	-10.7	-5.91
CC(=O)N1c2ccc(-c3ccc(C(=O)O)cc3)cc2[C@H](Nc2ccc(Cl)cc2)C[C@@H]1C		-1.87		-19.1	-1.33
CCCCOC(=O)NS(=O)(=O)c1sc(CC(C)C)cc1-c1ccc(Cn2ccnc2)cc1	-4.62	-3.66	7.09	-39.5	-2.64
CNc1nc(C(=O)N2CCC(c3nccn3Cc3ccncc3)CC2)cs1	-3.25	-10	0.034	-5.35	-0.109
CCOc1ccc(NC(=O)N2CCn3cccc3C2Cc2ccccc2)cc1 (stereo unspecified)	6.19	3.26	-2.26	-3.17	-14.5
CSc1nc(N)c2ncn([C@@H]3O[C@H](COP(=O)(O)OP(=O)(O)OP(=O)(O)O)[C@@H](O)[C@H]3O)c2n1	-32.2	-11.2	-34.9	-30.4	-34.7
CC(=O)Nc1c2n(c3ccccc13)CC(C)(C(=O)NC1CCCC1)N(C1CCCC1)C2=O (stereo unspecified)	5.18	1.68	7.45	10.2	5.45
O=C(NC1CCCCC1)N1CCC(Cc2nc(-c3ccccc3)n[nH]2)C1 (stereo unspecified)	-8.41	-10.1	-3.77	-13.2	-13.6
CCCSCCCN1C(=O)c2nc3ccccc3n2CC1(C)C(=O)NC1CCCCC1 (stereo unspecified)	-3.38	3.08	-2.74	-2.96	-8.16
COc1ccc2cc(CNc3ccc(C)cc3)c(=O)n(CC(=O)Nc3cccc(C(F)(F)F)c3)c2c1		-24.5		-51.5	-17.7
Cn1c(=O)c2ccc(C(=O)NC3CCCC3)cc2n2c(=O)n(Cc3ccccc3Cl)nc12	-2.05	1.67	-1.18	-4.2	0.518
N#Cc1cccc(-c2cn3c(n2)N(C(=O)c2ccsc2)CCC3)c1	-4.6	-12.1	-40.5	-17.9	-12.1
CCCn1cnc2cc(CNS(=O)(=O)c3ccc(F)cc3)ccc21	4.26	0	1.22	-6.07	0.8
O=[S+]1([O-])N(Cc2ccccc2)C[C@@H](O)[C@]12CCN(Cc1ccc(C(F)(F)F)nc1)C2	-7.27	-5.01	-2.62	-13	-11.5
Cn1nccc1C(=O)N1CCC(N2CC(OCC3CC3)C23CCOCC3)CC1 (stereo unspecified)	-1.19	-4.55	-1.13	-7.1	-1.77

Structure (SMILES)	activity change, negative = inhibition [1] [%]	activity change, negative = inhibition [2] [%]	activity change, negative = inhibition [3] [%]	activity change, negative = inhibition [4] [%]	activity change, negative = inhibition [5] [%]
CCCCN1C(=O)c2cc(C(=O)NCCc3ccccc3Cl)nn2CC1(C)C(=O)NC1CCCC1 (stereo unspecified)	-0.582	1.71	-40.2	-8.41	-2.35
CCOC(=O)c1cc2n(n1)CC(C)(C(=O)NCCC(C)C)N(c1ccc(C)c(Cl)c1)C2=O (stereo unspecified)	-4.54	4.81	0.068	-9.44	-1.65
Cc1ccc(NS(=O)(=O)c2ccc3c(c2)NC(=O)CC(=O)N3)c(C)c1	-5.14	-0.812	-2.07	-3.35	-4.52
COc1ccc(C2=CC(=O)OC2Cc2ccc(O)cc2)c(O)c1 (stereo unspecified)	-0.397	1.25	-6.22	-11.5	3.17
O=C1CC(NS(=O)(=O)N2CCCC2)CN1Cc1ccc(F)cc1 (stereo unspecified)	-4.66	-4.54	-0.994	-4.55	-7.03
COc1ccc(CCNC(=O)CCc2nnc3n(Cc4ccccc4Cl)c(=O)c4ccccc4n23)cc1OC	-13.2	5.43	5.16	-6.54	-1.98
CC1=C[C@@H](CNC(=O)CC(C)(C)C)[C@H](C(C)C)C[C@H]1CC(=O)NC1CCCC1	-5.21	-0.303	-2.88	-6.53	-4.66
Cc1ccc(-c2nnc(C3CN(C(=O)c4ccnn4C)CC34CCOCC4)o2)cc1 (stereo unspecified)	0.368	-3.22	1.83	-3.46	2.63
Cc1ccc(NC(=O)N2CCn3cccc3C2C(C)C)cc1Cl (stereo unspecified)	13.5	0	10.1	3.1	15.5
COc1ccccc1-c1cc(C(=O)N2CCOCC2)nc2c1cnn2C	-5.21	-2.1	-1.83	-7.72	-2.71
CCOC(=O)c1cc2n(n1)CC(C)(C(=O)NC1CCCCC1)N(Cc1ccccc1OCC)C2=O (stereo unspecified)	7.62	3.43	2.65	1.48	5.73
COc1ccc(CCNC(=O)c2cc3n(n2)CC(C)(C(=O)NCc2ccccc2)N(C)C3=O)cc1OC (stereo unspecified)	-7.82	3.04	-1.18	0.874	-0.362
Cc1ccccc1Cn1nc2n(CCC(C)C)c(=O)c3ccc(C(=O)NC(C)C)cc3n2c1=O	3.73	2.14	2.72	-1.86	0.185
COC(=O)C1=CO[C@@H](O[C@@H]2O[C@H](COC(=O)/C=C/c3cc(OC)c(O)c(OC)c3)[C@@H](O)[C@H](O)[C@H]2O)[C@@H]2C(CO)=CC[C@H]12	4.22	0.43	8.28	-14.1	-6.81
Cc1ccc(CN2CCC(C(=O)N3CCCCCCNC(=O)CC3)CC2)s1	-6	-7.13	-7.99	-8.45	-8.43
CCCn1c(=O)c2ccc(C(=O)NC(C)CC)cc2n2c(SCC(N)=O)nnc12 (stereo unspecified)	4.05	3.92	7.25	-3.46	1.19
O=C(CCc1nnc2n(Cc3ccc(Cl)cc3)c(=O)c3ccccc3n12)Nc1ccc(F)c(F)c1	-4.26	0.964	-2.05	-6.32	-6.07
Fc1cccc(-c2nnn3c2nc(NCc2ccc4c(c2)OCO4)c2ccccc23)c1	2.49	3.13	-2.7	1.19	-9.19
CCOc1ccccc1CN1C(=O)c2cc3occc3n2CC1(C)C(=O)NC1CCCC(C)C1C (stereo unspecified)	-4.72	2.88	0.699	-2.46	-3.99
CCN(CC)C(=O)Cn1c(=O)oc2cc(S(=O)(=O)N3CC(C)CC(C)C3)ccc21 (stereo unspecified)	-5.3	2.55	-1.44	5.38	-4.79

Structure (SMILES)	activity change, negative = inhibition [1] [%]	activity change, negative = inhibition [2] [%]	activity change, negative = inhibition [3] [%]	activity change, negative = inhibition [4] [%]	activity change, negative = inhibition [5] [%]
CCn1c(=O)n([C@H]2CCCN(c3nccc(-c4cc5ccccc5o4)n3)C2)c2ccccc21	4.07	-15.1	3.73	-29.5	-4.94
O=C(CCc1nnc2n(Cc3ccc(F)cc3)c(=O)c3ccccc3n12)NCCc1ccccc1	-12.9	4.19	-7.53	-20.4	-6.93
C=C1[C@@H]2CC[C@@H]3[C@@](CCC4C(C(=O)O)(C(=O)O)C[C@@H](O[C@@H]5O[C@H](CO)[C@@H](O)[C@H](O)[C@H]5OC(=O)CC(C)C)C[C@]43C)(C2)[C@H]1O (stereo partly specified)	7.58	8.39	7.91	-3.4	7.4
CC(C)Cn1c(=O)c2ccc(C(=O)NC(C)C)cc2n2c(=O)n(C)nc12	5.38	0	7.76	4.01	4.51
Cc1nnc([C@H]2CCN(Cc3cnc4ccccc4c3)C2)o1	-17.3	-1.33	-6.28	-4	-10.4
Cc1ccc(NC(=O)N2CCC(CCNC(=O)CC3CCCC3)CC2)cc1F	-6.64	-8.53	-4.64	-18.4	-12.4
COCCC1(NC(=O)c2ccoc2)CCN(CC2CC2)CC1	-2.32	2.82	-1.78	-0.359	-1.2
CC(=O)Nc1c2n(c3ccc(F)cc13)CC(C)(C(=O)NC1CCCCCC1)N(C1CCCCCC1)C2=O (stereo unspecified)	-11.2	-1.71	-4.41	-5.83	-5.82
C=C/C=C/[C@@H]1OC[C@H](/C=C/C=C/C)[C@H]1O	4.04	10.7	5.26	2.45	8.21
CCCn1c(=O)c2cc(F)ccc2n2c(SCC(=O)Nc3cc(F)ccc3F)nnc12	-5.24	0	7.12	-4.33	2.77
CC1CCCCN1CCNC(=O)CCCc1nnc2n3nc(-c4ccccc4)nc3c3ccccc3n12 (stereo unspecified)	-9.43	2.2	-29.3	2.13	-2.1
CC(C)CC(=O)Nc1n[nH]c2c1CN(C(=O)C1CCN(C)CC1)C2(C)C	-7.27	-7.89	-37.5	-14.9	-8.32
Cc1cccc(-c2nnc3n(Cc4ccc(F)cc4)c(=O)c4ccccc4n23)c1	-3.96	1.02	5.27	-4.69	1.08
Cc1c[nH]c2ncnc(N3CCC(CN)(C(=O)Nc4cccc(OC(=O)N(C)C)c4)CC3)c12	1.03	9.55	-7.83	-51.1	-14.6
C=C1[C@H](OC(C)=O)[C@H]2[C@@H](OC(C)=O)[C@](C)(OC(C)=O)C[C@]2(OC(C)=O)C(=O)[C@H](C)/C=C/C(C)(C)C(=O)[C@H](OC(=O)C(C)CC)[C@H]1OC(C)=O (stereo partly specified)	7.21	6.18	9.78	-6.93	-2.25
O=C(CCCc1nnc2n3nc(-c4ccccc4)nc3c3ccccc3n12)NCc1ccc2c(c1)OCO2	-4.92	0	0.003	2.85	-3.85
CC(C)(C)Sc1c(CC(C)(C)C(=O)O)n(Cc2ccc(Cl)cc2)c2ccc(OCc3ccc4ccccc4n3)cc12	-11.5	-2.79	5.94	-53.8	-2.44
CCOCCCNC(=O)CCc1nnc2n(Cc3ccccc3)c(=O)c3ccccc3n12	-7.78	4.57	0.984	10.7	-0.903
